Assay [1] relates to HSkMC (human skeletal muscle cells). The assay can be described thus: cytotoxicity call (relative viability < 0.9). The note with it: 10 µM.
The subject of assay [2] is HepG2. The assay can be described thus: cytotoxicity call (relative viability < 0.9). The note with it: 10 µM.
Assay [3] concerns S. aureus RN4220. Briefly: growth inhibition call (relative growth <= 0.2). To be noted: 50 µM.

Each structure is given as a SMILES string. Some of the results follow.

For `COCCCNC(=O)[C@@]1(CCS(=O)(=O)c2ccccc2)COC(c2ccc(OCCCO)cc2)=N1`, the cytotoxicity call in assay [1] and in assay [2] was “inactive” each time. Also, the growth inhibition call in assay [3] is “inactive”.

On to `C[C@@H]1CCCCO[C@H](CN(C)Cc2ccc(Cl)c(Cl)c2)[C@H](C)CN([C@@H](C)CO)C(=O)c2cc(NS(=O)(=O)c3cn(C)cn3)ccc2O1`, for which the cytotoxicity call in assay [1] and in assay [2] was “inactive” throughout. Also, in assay [3], the growth inhibition call was “inactive”.

With `CC(C)NC(=O)N(C)C[C@H]1Oc2ccc(NC(=O)CCCN(C)C)cc2C(=O)N([C@@H](C)CO)C[C@@H]1C`, the cytotoxicity call in assay [1] and in assay [2] was “inactive” throughout. In addition, in assay [3], the growth inhibition call is “inactive”.

For `COCC(=O)N(C)C[C@@H]1Oc2cc(C#CC(C)(C)O)ccc2S(=O)(=O)N([C@H](C)CO)C[C@@H]1C`, the cytotoxicity call in assay [1] and in assay [2] was “inactive” in each case. The growth inhibition call in assay [3] was “inactive”.

As for `C[C@H](CO)N1C[C@H](C)[C@H](CN(C)Cc2ccc(Oc3ccccc3)cc2)Oc2ccc(NC(=O)Cc3ccccc3)cc2C1=O`, the cytotoxicity call in assay [1] and in assay [2] was “inactive” in each case. In addition, in assay [3], the growth inhibition call was “inactive”.

Regarding `COc1cccc(NC(=O)N(C)C[C@@H]2OCc3ccccc3-c3c(n(C)c4ccccc34)C(=O)N([C@@H](C)CO)C[C@H]2C)c1`, the cytotoxicity call in assay [1] and in assay [2] was “inactive” throughout. Besides, the growth inhibition call in assay [3] is “inactive”.

`CC/C=C\C/C=C\C/C=C\CCCCCCCCCC(=O)O`: the cytotoxicity call in assay [1] and in assay [2] was “inactive” throughout. Besides, the growth inhibition call in assay [3] is “inactive”.

As for `CCCN(C)C[C@H]1OCCCC[C@H](C)Oc2ccc(NC(=O)Cc3ccccc3)cc2C(=O)N([C@H](C)CO)C[C@H]1C`, the cytotoxicity call in assay [1] and in assay [2] was “inactive” each time. Moreover, the growth inhibition call in assay [3] is “inactive”.

On to `COc1ccc(S(=O)(=O)Nc2ccc3c(c2)C(=O)N([C@@H](C)CO)C[C@@H](C)[C@H](CN(C)S(=O)(=O)c2cccs2)O3)cc1`, for which the cytotoxicity call in assay [1] and in assay [2] was “inactive” throughout. In assay [3], the growth inhibition call was “inactive”.

On to `C[C@@H]1CN([C@@H](C)CO)C(=O)c2cc(NC(=O)Nc3ccc(C(F)(F)F)cc3)ccc2O[C@H]1CN(C)Cc1ccc(C(=O)O)cc1`, for which the cytotoxicity call in assay [1] and in assay [2] was “inactive” in each case. The growth inhibition call in assay [3] was “inactive”.

For the compound `C=CCC[C@H](Cc1ccc(F)cc1)C(=O)OC[C@@H](Cc1c[nH]c2ccccc12)NC(=O)[C@H](CC=C)CC(=O)N[C@@H](CO)Cc1ccccc1`, in assay [1], the cytotoxicity call was “inactive”. In addition, the cytotoxicity call in assay [2] was “active”. The growth inhibition call in assay [3] was “inactive”.

For the compound `COCCC(=O)N1CCC2(CC1)COC2`, the cytotoxicity call in assay [1] and in assay [2] was “inactive” in each case. The growth inhibition call in assay [3] is “inactive”.

With `Cc1cc(C(=O)NCc2cc3n(n2)CCN(S(C)(=O)=O)C3)nc(C)n1`, the cytotoxicity call in assay [1] and in assay [2] was “inactive” throughout. Further, the growth inhibition call in assay [3] was “inactive”.

With `CN1C(=O)c2cc(NC(=O)c3ccno3)ccc2OC[C@H]2O[C@@H](CC(=O)NC3Cc4ccccc4C3)CC[C@@H]21`, the cytotoxicity call in assay [1] and in assay [2] was “inactive” in each case. Also, the growth inhibition call in assay [3] is “inactive”.

As for `C[C@H](CO)N1C[C@H](C)[C@H](CN(C)C(=O)NC2CCCCC2)OCCCC[C@H](C)Oc2ccc(NC(=O)Nc3cccc4ccccc34)cc2C1=O`, the cytotoxicity call in assay [1] and in assay [2] was “inactive” in each case. Besides, the growth inhibition call in assay [3] is “inactive”.

Take `CCC(CC)c1nc(Nc2ccccc2)c2ccccc2n1`: the cytotoxicity call in assay [1] and in assay [2] was “inactive” each time. In assay [3], the growth inhibition call is “active”.

Turning to `C[C@@H]1CN([C@@H](C)CO)C(=O)Cc2cc(NC(=O)Cn3cnnn3)ccc2O[C@@H]1CN(C)Cc1ccc(C(F)(F)F)cc1`, the cytotoxicity call in assay [1] and in assay [2] was “inactive” each time. Besides, the growth inhibition call in assay [3] is “inactive”.

Consider `COc1ccc([Si](C)(C)[C@@H]2[C@@H](CC(=O)N3CCC[C@H]3CO)O[C@]3(C(=O)N(Cc4cccc(N5CCCCC5=O)c4)c4ccccc43)[C@H]2C)cc1`, for which the cytotoxicity call in assay [1] and in assay [2] was “inactive” each time. Moreover, in assay [3], the growth inhibition call is “inactive”.

Take `C[C@@H]1CN([C@H](C)CO)C(=O)c2cc(NC(=O)CCCN(C)C)ccc2O[C@H]1CN(C)Cc1ccncc1`: the cytotoxicity call in assay [1] and in assay [2] was “inactive” throughout. In addition, the growth inhibition call in assay [3] was “inactive”.

`Nc1ccn([C@H]2CC[C@@H](CO)O2)c(=O)n1`: the cytotoxicity call in assay [1] and in assay [2] was “inactive” each time. Moreover, in assay [3], the growth inhibition call was “inactive”.

Turning to `C[C@H](O)C#Cc1ccc2c(c1)O[C@@H](CN(C)C(=O)CN(C)C)[C@H](C)CN([C@@H](C)CO)S2(=O)=O`, the cytotoxicity call in assay [1] and in assay [2] was “inactive” each time. Besides, in assay [3], the growth inhibition call was “inactive”.

On to `C[C@H](CO)N1C[C@H](C)[C@@H](CN(C)S(=O)(=O)c2ccc(F)cc2)Oc2ncc(C#CC3(O)CCCC3)cc2C1=O`, for which the cytotoxicity call in assay [1] and in assay [2] was “inactive” in each case. Besides, the growth inhibition call in assay [3] is “inactive”.

On to `COCCOC(=O)N1C(=O)[C@@]2(c3cc(C#Cc4ccc(OC)cc4)ccc31)[C@H](c1ccc(O)cc1)N1[C@H](c3ccccc3)[C@H](c3ccccc3)OC(=O)[C@H]1[C@@H]2C(N)=O`, for which the cytotoxicity call in assay [1] and in assay [2] was “inactive” throughout. In addition, the growth inhibition call in assay [3] is “inactive”.

For `C[C@@H]1CN([C@@H](C)CO)C(=O)c2cc(NS(=O)(=O)c3cccs3)ccc2O[C@H]1CN(C)Cc1ccc(-c2ccccc2)cc1`, the cytotoxicity call in assay [1] and in assay [2] was “inactive” each time. Also, the growth inhibition call in assay [3] was “inactive”.

Take `CSc1[nH]c(=O)[nH]c(=O)c1C#N`: the cytotoxicity call in assay [1] and in assay [2] was “inactive” each time. Also, the growth inhibition call in assay [3] is “inactive”.

Take `COc1ccc(NC(=O)N(C)C[C@H]2Oc3ccc(NC(=O)Cn4cnnn4)cc3CC(=O)N([C@@H](C)CO)C[C@H]2C)cc1`: the cytotoxicity call in assay [1] and in assay [2] was “inactive” each time. The growth inhibition call in assay [3] was “inactive”.

As for `C[C@@H]1CN([C@H](C)CO)C(=O)c2cccc(NC(=O)Nc3ccc4c(c3)OCO4)c2O[C@@H]1CN(C)Cc1ccc(-c2ccccc2)cc1`, the cytotoxicity call in assay [1] and in assay [2] was “inactive” in each case. Further, the growth inhibition call in assay [3] is “inactive”.

Values taken from the antibiotic and cytotoxicity screens of Wong et al. (2023).
